Measurements as given in ChEMBL document CHEMBL4888484, “Replenishing the malaria drug discovery pipeline: Screening and hit evaluation of the MMV Hit Generation Library 1 (HGL1) against asexual blood stage Plasmodium falciparum ,using a nano luciferase reporter read-out” (2022).
The campaign covered roughly 150,000 compounds. About 540 (0.36%) showed an effect of 50% or more. The list shows a part of the results.

test system: Plasmodium falciparum; assay: Primary screen in NF54 nanoGlo assay, in single point, at 2uM, 72h; a lower Z score goes with more inhibition; assay type: functional, Erythrocyte; settings: timepoint 72 hour

SMILES | % Inhibition | Z score
Cc1ncsc1C(=O)NC[C@H](O)C(=O)OCc1ccccc1 | -10% | 0.92
O=C(CCc1nnc2ccc(N3CCCCC3)nn12)Nc1ccccn1 | -12% | 2.05
COc1nc2c(cc1CN(C)[C@@H](C)c1ccc3c(c1)OCCO3)C(=O)N(C(C)C)C2 | -7% | 0.95
Fc1ccccc1N1CCN(Cc2cccn2-c2nnc(N3CCN(C4CCCCC4)CC3)s2)CC1 | 7% | -0.66
O=C(Nc1cc2n(n1)CCNC2)C1NCCC2CCCCC21 (stereo not drawn) | -2% | 0.39
O=C(c1cc2nccc(-c3ccc(F)cc3)n2n1)N1CCCCCC1 | -1% | 0.16
CCCOC[C@H]1CCN(c2nc(-c3ccncc3)nc3c2CNC3)C1 | 2% | -0.28
CC1CCN(C(=O)CCc2ccco2)CC1 | -15% | 1.71
Cc1ncc(NC(=O)[C@H]2CCc3nncn3C2)cn1 | -5% | 0.75
CN1CC[C@@H](c2nc(CCc3ccc(OC(F)F)cc3)no2)S1(=O)=O | -2% | 0.29
COc1cncc(O[C@H]2CCCN(C(=O)c3c(C)nn(C)c3C)C2)n1 | -8% | 1.4
CCN(CC)S(=O)(=O)c1ccc(NC(=O)C(C)C)cc1 | 0% | 0.05
COc1ccc(CNCc2cc(C(C)C)no2)cc1OC[C@@H](O)CN1CCCCC1 | 5% | -0.72
CC1CN(C(=O)[C@H]2CCCCC2(F)F)C1 | -5% | 0.98
CC(C)c1ccc(Oc2cnn(C)c(=O)c2Nc2ccc(C(=O)N(C)Cc3ccccc3)cc2)cc1 | -5% | 0.64
Nc1nc(NCCCn2ccnn2)cc(C2CC(O)C2)n1 (stereo not drawn) | 1% | -0.13
Cc1ccc2c(c1C)NC(=O)[C@]21N2CCC[C@H]2[C@@H](C(=O)c2ccccc2Cl)[C@]12C(=O)Nc1ccccc12 | 7% | -0.9
CCCn1cnnc1CNc1nc2ccccc2o1 | -11% | 1.35
COC[C@H](Nc1ccncc1Cl)c1ccc(C)o1 | -3% | 0.44
O=C(NCCc1ccco1)N(Cc1cccnc1)C1CCCCC1 | -4% | 0.56
COCCS(=O)(=O)N1CCCC[C@H]1c1nc(-c2ccccc2)c[nH]1 | -11% | 1.16
CCOCC(=O)NC1CCCC(O)C1 (stereo not drawn) | -8% | 1.58
NC(=O)CCn1cnc2c(c1=O)CCC2 | -7% | 1.08
CCN1CC[C@H](NC2CCN(c3ccc(Cl)cc3)CC2)C1 | -13% | 2.18
Cc1nc(CCNC(=O)CN(C)[C@H]2CCS(=O)(=O)C2)nc2c1CCC2 | 0% | -0.02
Cc1cc(S(=O)(=O)N(C)[C@@]2(C#N)CCOC2)sc1C | 10% | -1.89
O=C(Nc1ccc(Br)cc1Br)C1(F)C(F)(F)C(F)(F)C(F)(F)C(F)(F)C1(F)F | 2% | -0.25

SMILES | % Inhibition | Z score
CC1(C)NC(=O)N(CCCn2cnc(C#N)c2C#N)C1=O | 0% | 0
O=C(Cn1ccc2ccc(N3CCCCCC3)nc21)NC1CCCC1 | -8% | 1.1
CC[C@@](NC(=O)c1csc(C(C)C)n1)(C(N)=O)C(C)C | -16% | 1.42
CCOC(=O)CCN(C)C(=O)CCC1CN(C(=O)OC(C)(C)C)C1 | -11% | 1.45
COc1ccccc1-c1cnc(CN[C@H]2CCc3ccccc3OC2)o1 | -6% | 0.75
N#Cc1cccc(C(=O)OC2(C3CC3)CC2)c1 | -10% | 1.09
Cc1nn(CCC#N)c(C)c1[C@@H]1C=C[C@@H](NC(=O)Nc2ccc(Cl)cc2)C1 | 34% | -3.86
Cc1cccc(CC(=O)N[C@@H](Cn2nccn2)c2ccccc2)c1 | -8% | 1.19
CCCCn1ncnc1-c1ccc2c(c1)nc(N1CC[C@H](O)C1)n2C | -2% | 0.32
CNC(=O)c1nc[nH]c1-n1nc(C(C)(C)C)cc1C(F)(F)F | -3% | 0.49
Cc1nnc(N(C)Cc2ccc3c(c2)OCO3)c(C#N)c1C | -11% | 2.16
Cc1nc2c(c(=O)n1C)CN(C(=O)c1ccccc1Oc1ccccc1)C2 | -9% | 1.76
NC(Cc1ccccc1)=NO[C@H]1CCN(C2CC2)C1=O | -5% | 0.83
COc1cccc2c1nc(NC(=O)COC1CCN(C)CC1)n2C | -9% | 1.21
CN(CCc1ccccn1)C(=O)[C@H]1CCN(c2ccccc2Cl)C1 | -12% | 2.41
Cc1ccc(-n2nc(C(=O)O)c(/C=C/c3ccc(Cl)cc3Cl)c(C#N)c2=O)cc1C | 7% | -1.29
Cc1cc(Cl)cc2c1NC(=O)C21NC(C(C)O)[C@H]2C(=O)N(CCc3ccccc3)C(=O)[C@H]21 (stereo partly drawn) | -11% | 1.42
Cc1cc(C)cc(CN2CCN(C(=O)[C@H](C)n3cccn3)CC2=O)c1 | 1% | -0.14
C[C@H](Oc1ccccc1)c1n[nH]c2c1CN(Cc1cccc3nonc13)CC2 | -12% | 1.78
CC(C)c1cc(N2CCC3(CC2)CN[C@H](C(=O)O)C3)nc(C(F)(F)F)n1 | -7% | 0.78
CC(C)c1noc(CN(C)CC(=O)N2CCCC2)n1 | -15% | 1.83
Cc1ccc(C(=O)N2CCn3cccc3[C@H]2c2ccc(N(C)C)cc2)cc1C(F)(F)F | 9% | -1.69
Cc1cc(NC(=O)c2ccc(-c3ccccc3C(F)(F)F)o2)no1 | -12% | 1.4
CC(C)(C)[C@H](CO)NC(=O)Nc1ccccc1C(F)(F)F | -8% | 1.54
CCC(=O)Nc1cc(-c2ccccc2)ns1 | -12% | 1.83
Cc1cn(C[C@H](O)CN2CCOCC2)c(=O)n1-c1ccccc1 | -3% | 0.31
Cc1noc([C@@H]2CCCN2C(=O)c2nc3c(s2)CCCC3)n1 | -9% | 1.06
